# The inconclusive results got no clear call from the source; some entries with a clear call stand among them for comparison. For some of these results: A potency beside an inconclusive call is a rough fit, not a confirmed value. Calls of active or inactive are those of the source. Unless noted, calls follow the shape of the dose curve; as a rule, active = well fitted curve in the direction sought with a large enough effect; inconclusive = small, poorly fitted or top-dose-only effect, or another doubt; inactive = no such curve, though single readings can be large; an effect the other way counts as inactive or inconclusive.
# Columns and labels:
# [1] = target: Glucocorticoid receptor (Homo sapiens) (UniProt P04150); assay: GR-GFP Redistribution (AID 450;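 active = compounds whose dose series gives a full or clear partial fitted curve of increased nuclear translocation; inconclusive = weak partial curve or effect only at the top dose; inactive = no dose-dependent translocation response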; also: potency is read from the fitted curve at half-maximal effect); details: U2OS GR-GFP nuclear translocation, laser cytometry, 2 h
# Sequence of UniProt P04150 (P04150 whole entry, looked up, the tested form may be a part): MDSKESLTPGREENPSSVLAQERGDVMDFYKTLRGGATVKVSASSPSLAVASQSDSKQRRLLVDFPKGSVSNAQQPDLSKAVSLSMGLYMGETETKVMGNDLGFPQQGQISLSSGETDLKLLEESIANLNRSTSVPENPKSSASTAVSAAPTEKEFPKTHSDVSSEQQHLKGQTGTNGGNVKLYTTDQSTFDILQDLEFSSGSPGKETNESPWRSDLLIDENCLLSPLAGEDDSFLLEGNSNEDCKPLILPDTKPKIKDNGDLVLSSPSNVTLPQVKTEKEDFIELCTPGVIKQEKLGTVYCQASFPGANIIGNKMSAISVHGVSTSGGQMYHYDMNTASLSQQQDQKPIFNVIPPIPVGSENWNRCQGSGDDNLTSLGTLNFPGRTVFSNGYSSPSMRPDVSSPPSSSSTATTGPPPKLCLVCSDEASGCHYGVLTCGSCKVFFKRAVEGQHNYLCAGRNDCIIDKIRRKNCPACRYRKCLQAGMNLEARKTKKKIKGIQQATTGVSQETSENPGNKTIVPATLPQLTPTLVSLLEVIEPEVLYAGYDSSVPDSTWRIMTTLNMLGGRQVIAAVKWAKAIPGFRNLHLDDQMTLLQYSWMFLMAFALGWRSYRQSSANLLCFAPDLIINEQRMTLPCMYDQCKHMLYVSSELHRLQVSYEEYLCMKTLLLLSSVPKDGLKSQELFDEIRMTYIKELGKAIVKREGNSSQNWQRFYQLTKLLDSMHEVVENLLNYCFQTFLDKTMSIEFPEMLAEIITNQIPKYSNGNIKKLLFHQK
# [2] = qHTS Assay for Identification of Small Molecule Antagonists for NFkB Signaling Pathway (AID 895; active = well fitted inhibition curve with a large enough effect in the signal ratio, with a control signal flat, not every such curve was filed as active; inconclusive = small, poorly fitted or top-dose-only effect, or effect the other way, or a change in a side signal; the % refers to the signal ratio; also: potency is read from the fitted curve at half-maximal effect; as to activity change, negative = inhibition: % is scaled to controls: 0 for no effect and ±100 for the full control effect); details: NFkB beta-lactamase reporter cells, FRET ratio 460/530, stimulated with 10 pM TNF alpha; activity change, negative = inhibition: at 38.3 µM (top of the series)
# Summary of the method: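 NFkB-bla ME-180 cervical carcinoma cells with beta-lactamase reporter under NFkB response element; compounds added, then TNF alpha at 10 pM final (EC50), 5 h at 37 C. LiveBLAzer substrate 2 h, room temperature; emission 460/530 nm at 405 nm excitation.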
# [3] = qHTS Assay for Identification of Small Molecule Agonists for Thrombopoietin (TPO) Signaling Pathway (AID 917); details: TPO signaling pathway reporter cells, agonist qHTS, stimulated with TPO at its EC50; activity, positive = activation: at 38.5 µM (top of the series); also: % is scaled to controls: 0 for no effect and ±100 for the full control effect
# Summary of the method: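 Murine Ba/F3 cells expressing human TPO receptor and GPIIb-promoter luciferase, IL-3-starved overnight, given compound plus TPO at 26 pM (EC50). After 24 h at 37 C, 5% CO2, luminescence read.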
# [4] = target: Glucocorticoid receptor (Homo sapiens) (UniProt P04150); assay: GR-EFC Redistribution (AID 451; calls by dose curve; also: potency is read from the fitted curve at half-maximal effect); details: CHO-K1 GR-EFC translocation, beta-gal luminescence, 2 h
# Summary of the method: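 CHO-K1 cells stably expressing nuclear-localized β-gal enzyme acceptor and GR fused C-terminally to the enzyme donor fragment; ligand-driven nuclear translocation restores β-gal by complementation. Compounds titrated up to 46 uM final, 2 h at 37 °C; luminescence read.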
# [5] = target: 3',5'-cyclic-AMP phosphodiesterase 4B (Homo sapiens) (UniProt Q07343); assay: qHTS Assay for Inhibitors of PDE-IV (AID 607; active = well fitted activation curve with a large enough effect in the main read-out, with a control signal flat, not every such curve was filed as active; inconclusive = small, poorly fitted or top-dose-only effect, or effect the other way, or a change in a side signal; also: potency is read from the fitted curve at half-maximal effect); details: HEK293 ACTOne CNG channel cells, membrane potential fluorescence; activation (PDE inhibition): at 22.9 µM (top of the series)
# Sequence of UniProt Q07343 (Q07343 whole entry, looked up): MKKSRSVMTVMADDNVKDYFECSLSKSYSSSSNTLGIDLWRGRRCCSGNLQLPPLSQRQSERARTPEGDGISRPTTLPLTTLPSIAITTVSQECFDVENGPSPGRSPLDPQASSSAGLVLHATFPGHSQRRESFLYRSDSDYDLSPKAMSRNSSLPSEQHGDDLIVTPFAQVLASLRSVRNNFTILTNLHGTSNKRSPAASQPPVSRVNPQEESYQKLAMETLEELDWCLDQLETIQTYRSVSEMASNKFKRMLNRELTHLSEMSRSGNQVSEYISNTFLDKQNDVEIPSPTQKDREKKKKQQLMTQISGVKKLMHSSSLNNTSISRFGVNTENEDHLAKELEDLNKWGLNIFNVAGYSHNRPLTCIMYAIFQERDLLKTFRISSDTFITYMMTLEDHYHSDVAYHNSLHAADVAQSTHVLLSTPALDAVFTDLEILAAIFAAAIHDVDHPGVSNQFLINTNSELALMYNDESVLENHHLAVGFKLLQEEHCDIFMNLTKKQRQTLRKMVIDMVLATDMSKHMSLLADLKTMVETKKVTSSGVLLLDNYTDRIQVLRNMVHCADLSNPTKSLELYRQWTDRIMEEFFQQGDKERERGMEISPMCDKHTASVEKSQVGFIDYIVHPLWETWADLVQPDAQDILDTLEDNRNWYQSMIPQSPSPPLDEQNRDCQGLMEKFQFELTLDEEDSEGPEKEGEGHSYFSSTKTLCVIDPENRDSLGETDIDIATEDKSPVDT
# Summary of the method: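 Live HEK293 cells with a modified cyclic nucleotide-gated (CNG) channel report intracellular cAMP via membrane-potential dye fluorescence (ex 535/em 590 nm). Endogenous PDE-IV was targeted. Compounds were tested at up to 22.9 uM final; RO 20-1724 100 uM served as control.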
# [6] = target: Muscarinic acetylcholine receptor M1 (Rattus norvegicus) (UniProt P08482); assay: qHTS Assay for Antagonists of Acetylcholine Muscarinic M1 Receptor: Kinetic Measurement of Intracellular Calcium Response (AID 943); details: M1-expressing cells, kinetic intracellular calcium fluorescence; series mostly up to 35.3 µM; also: potency is read from the fitted curve at half-maximal effect; nearly all actives have a fitted effect of over 75% in size
# Sequence of UniProt P08482 (P08482 whole entry, looked up): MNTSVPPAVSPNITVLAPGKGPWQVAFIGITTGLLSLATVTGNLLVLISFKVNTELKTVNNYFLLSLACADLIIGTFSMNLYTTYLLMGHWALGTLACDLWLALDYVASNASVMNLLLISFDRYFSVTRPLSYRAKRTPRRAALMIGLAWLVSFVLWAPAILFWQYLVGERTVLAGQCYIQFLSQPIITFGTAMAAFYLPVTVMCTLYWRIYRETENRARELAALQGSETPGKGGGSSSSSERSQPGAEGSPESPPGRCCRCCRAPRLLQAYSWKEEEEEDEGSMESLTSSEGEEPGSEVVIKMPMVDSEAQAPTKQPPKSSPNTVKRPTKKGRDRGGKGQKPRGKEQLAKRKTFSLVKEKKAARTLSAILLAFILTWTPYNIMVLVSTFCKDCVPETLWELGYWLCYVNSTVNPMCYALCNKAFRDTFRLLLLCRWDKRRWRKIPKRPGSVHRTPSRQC
# Summary of the method: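 Rat M1-CHO cells, 2000/well, overnight → Fluo-4 no-wash dye with probenecid, 1 h 37C → compound 10 min, room temp → basal read 6 s → carbachol EC80 (100 nM) → 4 min kinetic read; peak/basal.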
# [7] = target: Muscarinic acetylcholine receptor M1 (Rattus norvegicus) (UniProt P08482); assay: qHTS Assay for Antagonists of Acetylcholine Muscarinic M1 Receptor: Measurement of IP-One Response (AID 944); details: CHO-M1 cells, IP-One HTRF, antagonist mode; series mostly up to 46.1 µM; also: nearly all actives have a fitted effect of over 75% in size
# Tags tell the direction and shape of the fitted curve or compound fluorescence and quenching.
smiles,measurement,setting,value
C[C@@](N)(Cc1ccc(O)cc1)C(=O)O,Potency,[1],inconclusive: 24.8 µM [partial curve]
same,Potency,[2],"inconclusive: 0.0028 µM [inhibitor, full curve]"
same,"activity change, negative = inhibition",[2],inconclusive: 9.25%
same,Potency,[3],inactive
O=C(O)c1ccccc1-c1ccccc1C(=O)Nc1ccc2c(c1)[nH]c(=O)c1ccccc12,Potency,[1],inactive: > 46 µM
COc1cc(C)cc2c(-c3c(O)cc(O)c4c3C[C@H](C)N[C@@H]4C)cc(-c3cc(-c4c(O)cc(O)c5c4C[C@H](C)N[C@@H]5C)c4cc(C)cc(OC)c4c3O)c(O)c12,Potency,[4],inconclusive: 7.19 µM [single point]
O[C@H](CN1CCN(c2cccc(Cl)c2)CC1)C(c1ccccc1)c1ccccc1,Potency,[5],"inconclusive: 12 µM [rising, partial curve]"
same,Potency,[6],"inconclusive: 10 µM [inhibitor, partial curve, poor fit]"
same,Potency,[7],inactive
N#Cc1ccccc1-c1ccc2ncnc(NC3CC3)c2c1,Potency,[5],"inconclusive: 12.6 µM [activator, single point]"

# From PubChem BioAssay (NCATS)
